Source: PubChem BioAssay AID463173 (ICCB-Longwood Screening Facility, Harvard Medical School, 2010)
In all, about 52,000 compounds went through this assay and about 1,700 (3.3%) were called active. Cut-off read from the data, not from the text of the source: active = survival mostly below about 52% (no sharp cut-off); inactive = mostly above about 56%. This is one part of the list.

system: Wild type; experiment: growth inhibition of S. aureus wild type versus tarO mutant, primary screen, teichoic acid synthesis inhibitors, RN4220, OD600 (AID 463173); conditions: S. aureus RN4220 wild type/DeltatarO growth, OD600, 18 h, stronger effect = lower value, screened at 18.75 µg/mL (by protocol)

SMILES | survival
O=C(O)C1C2C=CC3(CN(C(c4ccccc4)c4ccccc4)C(=O)C13)O2 (centres undefined) | inactive: 114%
COC(=O)c1ccc2oc(=O)c(S(=O)(=O)c3ccc(C)cc3)cc2c1 | inactive: 86%
CCCC(=O)Nc1cccc(-c2nc3cc(C)c(C)cc3o2)c1C | inactive: 86%
COc1ccc(C(=O)Nc2nccs2)cc1OC | inactive: 104%
Cc1ccc(CNC(=O)C2CCN(c3nc4ccc(C)cc4[nH]3)CC2)cc1 | inactive: 131%
COc1cc(OC)c(NC(=O)c2cnc(N3CCCC3)nc2C)cc1Cl | inactive: 73%
CCSc1ncc(Cl)c(C(=O)Nc2sc(C(C)=O)c(C)c2C(=O)OC)n1 | inactive: 76%
Cc1ccc2c(c1)c1c(c(=O)n(-c3cccc(Cl)c3)c(=O)n1C)n2C | inactive: 58%
COc1ccc(CNC(=O)c2ccc(Sc3ccc(Cl)cc3)c(NC(C)=O)c2)c(OC)c1 | inactive: 73%
O=C1CN(C(=O)COc2ccc(Cl)cc2Cl)C(c2ccc(F)cc2)c2cc(F)ccc2N1 (centres undefined) | inactive: 43%
COc1ccc(C(=O)c2oc3ccccc3c2NC(=O)c2nc(SC)ncc2Cl)cc1Cl | inactive: 91%
CCOC(=O)c1c(NC(=O)c2cc3nc(-c4ccc(OC)cc4)cc(C(F)(F)F)n3n2)sc(C)c1C | inactive: 129%
CCc1cccc(NC(=O)c2c(C)oc3ncnc(N4CCCCC4)c23)c1 | inactive: 53%
O=C(Nc1ccc2nc(C3CC3)n(Cc3ccccc3)c(=O)c2c1)C1CC1 | inactive: 104%
CC(C)c1ccc(Nc2cc(C(=O)NCc3cccs3)c3ccccc3n2)cc1 | inactive: 92%
CCOC(=O)c1nnn(C(CC)C(=O)Nc2c(C)cccc2C)c1C(=O)OCC (centres undefined) | inactive: 90%
CCOC(=O)N1CCc2c(sc(NCc3cccs3)c2C(=O)Nc2cc(OC)ccc2OC)C1 | inactive: 73%
CCN(CC)C(=O)CSc1nnc2[nH]c(=O)cc(C)n12 | inactive: 71%
CC(C)CNC(=O)C1CCN(c2ccc(S(=O)(=O)N3CCOCC3)cc2)CC1 | inactive: 108%
Cc1ccc(NC(=O)N2CCN(c3nnc(C)c4c(C)n(-c5ccccc5)nc34)CC2)c(Cl)c1 | inactive: 99%
CCOc1ccc2nc(N3CCCC(C(=O)NCc4ccc(OC)cc4)C3)sc2c1 (centres undefined) | inactive: 85%
CCc1ccccc1NC(=O)CCCN1C(=O)COc2ccc(C)cc21 | inactive: 74%
CCNc1nc(Oc2ccc(OCC(=O)OC)nn2)nc(N2CCOCC2)n1 | inactive: 70%

SMILES | survival
CCOc1ccc(-c2cccc(NS(=O)(=O)c3ccc(Cl)s3)c2)nn1 | inactive: 73%
COc1ccc2cc(-c3cn4c(n3)sc3cc(F)ccc34)c(=O)oc2c1 | inactive: 98%
CC(C)S(=O)(=O)c1oc(-c2ccc(F)cc2)nc1S(=O)(=O)c1ccc(F)cc1 | inactive: 26%
CC[N+](C)(C)Cc1ccco1 | inactive: 107%
Cc1cccc(OCC(=O)N(Cc2cccc(Cl)c2)Cc2ccco2)c1C | inactive: 85%
CCN(C1CCCCC1)S(=O)(=O)c1cccc(S(=O)(=O)N2CCCC2)c1 | inactive: 111%
Cc1ccc(S(=O)(=O)c2nc(-c3ccccc3)oc2N2CCCCCC2)cc1 | active: 6%
N#Cc1c(N)nc(SCc2ccccc2)c(C#N)c1-c1cccs1 | inactive: 100%
COc1ccccc1C(OC(=O)c1ccco1)C(=O)NCC1CCCO1 (centres undefined) | inactive: 105%
COc1cccc(C(=O)NCC(c2ccc(N(C)C)cc2)N2CCOCC2)c1OC (centres undefined) | inactive: 130%
Cc1ccccc1CSc1nc(-c2ccccc2)nc2c1Cc1c(CO)cnc(C)c1O2 | inactive: 118%
CCOC(=O)c1c(S(=O)(=O)N2CCCC(C(=O)Nc3cc(C)ccc3OC)C2)c(C)n(C)c1C (centres undefined) | inactive: 84%
CC(C)CCNC(=O)N1CCN(S(=O)(=O)c2ccc3c(ccn3C)c2)CC1 | inactive: 70%
CC1CCN(S(=O)(=O)c2ccc3c(c2)N(CC(=O)N2CCN(c4ccc(Cl)cc4)CC2)C(=O)CO3)CC1 | inactive: 75%
CCOc1ccc(CCNC(=O)CCc2cn(Cc3ccc(C)cc3)c3ccccc23)cc1 | inactive: 93%
CCCCNC(=O)CCn1c(=O)c2ccccc2n(Cc2cc(C)ccc2C)c1=O | inactive: 89%
COc1cccc(C2=NN(C(C)=O)C(c3cn(-c4ccccc4)nc3-c3cccs3)C2)c1 (centres undefined) | inactive: 140%
Cc1ccc(S(=O)(=O)N2CC=C(c3ccc(F)cc3)CC2)cc1 | inactive: 108%
CCCC(=O)Nc1nnc(SCc2cc(=O)c3cc(C)ccc3[nH]2)s1 | inactive: 70%
O=C(c1ccc(CSc2nc3ccncc3n2Cc2ccccc2F)cc1)N1CCCCCC1 | inactive: 91%
Cc1ccc(C)c(N2CCN(C(=O)c3cc(S(=O)(=O)N4CCCCC4)cn3C)CC2)c1 | inactive: 73%
COc1ccc2[nH]cc(CCNC(=O)Nc3ccc(F)cc3)c2c1 | inactive: 95%
CC(C)c1ccc(Nc2cc(C(=O)NCCc3ccccc3)c3ccccc3n2)cc1 | inactive: 84%

SMILES | survival
Cc1csc(N(C)C(=O)CSc2nnc(COc3cccc4ccccc34)o2)n1 | inactive: 116%
O=C(Cn1ncc2c3ccccc3n(Cc3ccc(Cl)cc3)c2c1=O)NCCCc1ccccc1 | inactive: 88%
COc1ccc(Nc2oc(-c3ccc(COc4ccc(OC)cc4)o3)nc2C#N)cc1 | inactive: 86%
CCCCN(CC)c1ncnc2c1sc1nc(N3CCOCC3)c3c(c12)CCCC3 | inactive: 55%
Cc1ccc(C)c(S(=O)(=O)c2nnn3c2nc(N2CCCC2)c2sccc23)c1 | inactive: 88%
CCC(C)NC(=O)C1CCN(C(=O)c2cc3sccc3n2Cc2ccc(Cl)cc2)CC1 (centres undefined) | inactive: 71%
CCC12C=CCN3CCC4(c5ccc(OC)cc5NC4C(O)(C(=O)OC)C1OC(C)=O)C32 (centres undefined) | inactive: 100%
NCC1OCCc2ccccc21 (centres undefined) | inactive: 114%
CCc1ccccc1N1CC(c2nc3ccccc3n2CC(C)C)CC1=O (centres undefined) | inactive: 91%
CC(C)(C)C1CCc2nc(NC(=O)COc3ccc(F)cc3)sc2C1 (centres undefined) | inactive: 131%
CCCCN(CC)CCCn1cnc2c([nH]c3ccc(Cl)cc32)c1=O | inactive: 105%
CCC(=O)Nc1ccccc1-c1nc2ccccc2n(C(CC)C(=O)Nc2cccc(C(C)=O)c2)c1=O (centres undefined) | inactive: 108%
Cc1oc(-c2ccc(C(=O)Nc3ccc(F)cc3F)cc2)nc1COc1ccccc1 | inactive: 82%
CC(C)(C)c1ccc(OCCSc2nc(-c3cccs3)nc3cc(=O)[nH]n23)cc1 | inactive: 70%
O=C(N/N=C/c1ccco1)C1CN(S(=O)(=O)c2ccccc2)CCN1S(=O)(=O)c1ccccc1 (centres undefined) | inactive: 33%
CC(=O)Nc1ccc(-n2cc3c(c2-c2ccc(C)cc2)c(=O)n(C)c(=O)n3C)cc1 | inactive: 84%
CN(C)C(=O)c1ccc2c(c1)N(CC(=O)NCc1ccc(F)cc1)C(=O)C1CCCCN21 (centres undefined) | inactive: 81%
O=C1C(c2ccccc2)=C(c2ccccc2)C(=O)N1O | inactive: 119%
CCCC(=O)Oc1c(Sc2ccc(Cl)cc2)c(C)nn1-c1ccccc1 | inactive: 30%
CCOc1nc(NC(=O)NS(=O)(=O)Oc2ccc(Cl)cc2)nc(-c2ccccc2)n1 | inactive: 78%
Cc1ccc(NC(=O)C(Cc2ccccc2)NS(=O)(=O)c2ccc3c(c2)c(=O)n(C)c(=O)n3C)cc1 (centres undefined) | inactive: 71%
CCN(C(=O)c1cc(S(=O)(=O)N2CCOCC2)cn1C)c1ccc(OC)cc1 | inactive: 86%
CCOc1ccc(C(C)C)cc1S(=O)(=O)Nc1cccc(-c2ccc(N3CCOCC3)nn2)c1 | inactive: 112%

SMILES | survival
Cn1cc(C(=O)O)c(=O)c2cc(S(=O)(=O)N3CCCCC3)ccc21 | inactive: 81%
Cc1ccc(CN2C(=O)c3ccccc3S(=O)(=O)c3ccc(C(=O)OCC4CCCO4)cc32)cc1 (centres undefined) | inactive: 65%
CC(C)(C)c1ccc(OCC(=O)N(Cc2ccco2)Cc2ccccc2F)cc1 | inactive: 76%
CCC(C)NC(=S)N1CCN(C)CC1 (centres undefined) | inactive: 89%
Cc1ccc(-c2ccc(C#N)c(=O)n2CC(=O)N(C)C)cc1 | inactive: 105%
Cc1cccn2c(=O)c3cc(C(=O)NCCc4ccc(S(N)(=O)=O)cc4)n(C)c3nc12 | inactive: 96%
COc1ccc(OC)c(C2C(C(N)=O)=C(C)Nc3nc(-c4cccc(Cl)c4)nn32)c1 (centres undefined) | inactive: 130%
Cc1ccc2[nH]c(=O)c(CN(Cc3nnnn3CCc3ccccc3)C3CCCC3)cc2c1 | inactive: 109%
Cc1ccc2c(c1)cc1c(=O)n(CC(=O)NCc3ccco3)nc(C)n12 | inactive: 79%
COc1cc(OC)cc(-c2nnc(SCC(=O)N3CCC(C)CC3)o2)c1 | inactive: 79%
COc1ccc(CCNC(=O)CCn2c(=O)c3ccccc3n(CC(=O)Nc3cccc(C)c3)c2=O)cc1OC | inactive: 100%
CC(=O)c1ccc(NC(=O)Cn2c(-n3nc(C)cc3C)nc(C)cc2=O)cc1 | inactive: 83%
COc1cc(C(=O)Nc2cccc(OCc3cc(=O)n4c(C)csc4n3)c2)cc(OC)c1OC | inactive: 94%
Cc1nn2c(=O)cc(COC(=O)c3ccccc3NC(=O)C(C)C)nc2s1 | inactive: 74%
COc1cccc(-n2cc(C(=O)Oc3ccc(F)cc3)c3ccccc3c2=O)c1 | inactive: 73%
CCCC(=Nc1ccccc1O)C1=C(O)CC(CC(C)SCC)CC1=O (centres undefined) | inactive: 108%
COCCn1nnnc1CN1CCC(NC(=O)Nc2cccc(OC)c2)CC1 | inactive: 118%
COc1ccc(S(=O)(=O)N2CCC(c3nnc(-c4ccccc4C)o3)CC2)c(OC)c1 | inactive: 91%
Cc1noc2ncnc(N3CCCC(C(=O)NCCC(C)C)C3)c12 (centres undefined) | inactive: 78%
CCOC(=O)c1ccc(N=c2sc(C(=O)OC)cc(=O)n2C2CC2)cc1 | inactive: 113%
